This assay addresses T1, recombinant human ACE2 protein (human, UniProt Q9BYF1, biotinylated (site not stated; said in the results only)).
T1 construct: also called biotinylated ACE2; not shown: Fc (mouse IgG)
The assay can be described thus: BLI; Octet RED96; human ACE2 (20 µg/ml) held on the sensor (methods: anti-mIgG Fc Capture probe; results: biotinylated ACE2 on streptavidin biosensors); ApoE at 735.3-5882 nM in PBST; 1:1 Langmuir model. The conditions noted are these: both partners purified. A general note: In BLI a coated tip is dipped into the sample, and binding shifts an interference pattern.

T1 sequence (Q9BYF1 18-740): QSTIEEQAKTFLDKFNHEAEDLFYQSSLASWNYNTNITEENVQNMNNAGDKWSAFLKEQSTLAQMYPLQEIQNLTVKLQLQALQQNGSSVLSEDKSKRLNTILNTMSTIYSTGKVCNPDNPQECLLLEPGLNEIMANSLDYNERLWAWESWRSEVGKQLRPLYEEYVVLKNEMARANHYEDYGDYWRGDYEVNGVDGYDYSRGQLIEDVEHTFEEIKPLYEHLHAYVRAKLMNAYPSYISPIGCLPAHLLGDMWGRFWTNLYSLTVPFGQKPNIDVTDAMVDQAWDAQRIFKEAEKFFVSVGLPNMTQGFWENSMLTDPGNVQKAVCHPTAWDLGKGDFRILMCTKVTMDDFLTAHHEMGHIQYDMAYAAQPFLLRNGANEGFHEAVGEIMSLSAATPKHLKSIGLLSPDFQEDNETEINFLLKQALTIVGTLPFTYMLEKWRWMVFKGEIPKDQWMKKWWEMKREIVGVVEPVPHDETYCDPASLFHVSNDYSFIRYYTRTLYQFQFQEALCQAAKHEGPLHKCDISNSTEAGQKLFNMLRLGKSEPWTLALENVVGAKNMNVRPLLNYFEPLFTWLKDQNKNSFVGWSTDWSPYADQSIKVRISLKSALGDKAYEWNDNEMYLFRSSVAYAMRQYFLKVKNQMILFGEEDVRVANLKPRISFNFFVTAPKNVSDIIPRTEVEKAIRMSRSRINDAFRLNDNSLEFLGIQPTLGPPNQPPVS

B1: recombinant human ApoE2 (natural protein)
chain: not shown
notes: also called purified recombinant ApoE
As to B1, the binding result was “binds”.

B2: recombinant human ApoE4 (natural protein)
chain: not shown
notes: as for B1
Turning to B2, the binding result is reported as “binds”.

The values are drawn from paper PMC9910247 (Journal of Translational Medicine, 2023).
